In PubChem BioAssay (Tox21):
“And” between values parts separate entries of the source, which are not always exact repeats. Equal entries are not always repeated. The inconclusive results got no clear call from the source; some entries with a clear call stand among them for comparison. For part of these data: Where the call is inconclusive, the potency comes from a doubtful curve fit. Some structures have more than one record in an assay (separate samples or runs), and their calls can disagree. The source made the active and inactive calls. Unless noted, calls follow the shape of the dose curve; as a rule, active = well fitted curve in the direction sought with a large enough effect in the repeat runs; inconclusive = weak or mixed curves; inactive = no such curve, though single readings can be large; an effect the other way counts as inactive or inconclusive.

How the values were obtained:
[1] = qHTS assay for identifying genotoxic compounds that show differential cytotoxicity against isogenic chicken DT40 cell lines with known DNA damage response pathways - Rad54/Ku70 mutant cell line (AID 743015); conditions: DT40 Rad54/Ku70 mutant viability, CellTiter-Glo, 40 h; activity change, negative = cytotoxicity: at 66.8 µM (top of the series) unless noted; also: nearly all actives have a fitted effect of over 60% in size; also: potency is read from the fitted curve at half-maximal effect; as to activity change, negative = cytotoxicity: % is scaled to controls: 0 for no effect and ±100 for the full control effect
[2] = qHTS assay to identify small molecule antagonists of the thyroid receptor (TR) signaling pathway - cell viability counter screen (AID 743064); conditions: GH3.TRE-Luc viability, CellTiter-Fluor, 24 h; activity change, negative = cytotoxic: at 70.3 µM (top of the series) unless noted; also: potency is read from the fitted curve at half-maximal effect; nearly all actives have a fitted effect of over 50% in size
Outline: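 Compounds were tested on GH3.TRE-Luc cells in the presence of T3 at 1 nM final. Following 23.5 h at 37 °C, cell viability was quantified by CellTiter-Fluor.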

[3] = qHTS assay to identify small molecule antagonists of the thyroid receptor (TR) signaling pathway (AID 743065); conditions: GH3.TRE-Luc, T3-stimulated luciferase inhibition, 23.5 h; series mostly up to 70.3 µM; also: potency is read from the fitted curve at half-maximal effect; nearly all actives have a fitted effect of over 55% in size
Outline: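 GH3.TRE-Luc rat pituitary cells (two TREs driving luciferase) were dosed with compound, then stimulated with 1 nM T3 (final) for 23.5 h at 37 C. ONE-Glo luminescence was the read-out, with CellTiter-Fluor fluorescence as the cytotoxicity counter-screen.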

[4] = target: Androgen receptor (Homo sapiens) (UniProt P10275); test: qHTS assay to identify small molecule antagonists of the androgen receptor (AR) signaling pathway (AID 743035; active = well fitted inhibition curve with a large enough effect in the signal ratio in the repeat runs, not every such curve was filed as active; inconclusive = weak or mixed curves, or effect the other way; inactive = no such curve, though single readings can be large or run the other way; the % refers to the signal ratio; also: % is scaled to controls: 0 for no effect and ±100 for the full control effect); conditions: HEK293 AR-UAS-bla, R1881-stimulated, beta-lactamase FRET, 16 h; activity change, negative = inhibition: at 58.5 µM (top of the series) unless noted
Outline: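 AR-bla HEK293 reporter cells; 4 h settle at 37C/5% CO2; compound + R1881 agonist, 16 h at 37C; LiveBLAzer B/G FRET substrate 2 h RT; fluorescence intensity read. qHTS format.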

[5] = qHTS assay to identify small molecule antagonists of the androgen receptor (AR) signaling pathway - cell viability counter screen (AID 743033; also: potency is read from the fitted curve at half-maximal effect; nearly all actives have a fitted effect of over 45% in size); conditions: AR-bla HEK293 viability, CellTiter-Glo luminescence, 16 h; series mostly up to 58.5 µM
[6] = qHTS assay to identify small molecule antagonists of the androgen receptor (AR) signaling pathway using the MDA cell line - cell viability counter screen (AID 743041; also: potency is read from the fitted curve at half-maximal effect; nearly all actives have a fitted effect of over 45% in size); conditions: MDA-kb2 viability, CellTiter-Fluor, 16 h, cells co-treated with R1881 androgen agonist; viability change, negative = cytotoxic: at 70.3 µM (top of the series) unless noted
Outline: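 Cytotoxicity counter screen: MDA-kb2 AR-luc cells, compound + R1881, 16 h, 37C, 0% CO2; CellTiter-Fluor added at 15.5 h, fluorescence read after 30 min.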
Tags tell the direction and shape of the fitted curve.

Sequence of UniProt P10275 (P10275 whole entry, looked up): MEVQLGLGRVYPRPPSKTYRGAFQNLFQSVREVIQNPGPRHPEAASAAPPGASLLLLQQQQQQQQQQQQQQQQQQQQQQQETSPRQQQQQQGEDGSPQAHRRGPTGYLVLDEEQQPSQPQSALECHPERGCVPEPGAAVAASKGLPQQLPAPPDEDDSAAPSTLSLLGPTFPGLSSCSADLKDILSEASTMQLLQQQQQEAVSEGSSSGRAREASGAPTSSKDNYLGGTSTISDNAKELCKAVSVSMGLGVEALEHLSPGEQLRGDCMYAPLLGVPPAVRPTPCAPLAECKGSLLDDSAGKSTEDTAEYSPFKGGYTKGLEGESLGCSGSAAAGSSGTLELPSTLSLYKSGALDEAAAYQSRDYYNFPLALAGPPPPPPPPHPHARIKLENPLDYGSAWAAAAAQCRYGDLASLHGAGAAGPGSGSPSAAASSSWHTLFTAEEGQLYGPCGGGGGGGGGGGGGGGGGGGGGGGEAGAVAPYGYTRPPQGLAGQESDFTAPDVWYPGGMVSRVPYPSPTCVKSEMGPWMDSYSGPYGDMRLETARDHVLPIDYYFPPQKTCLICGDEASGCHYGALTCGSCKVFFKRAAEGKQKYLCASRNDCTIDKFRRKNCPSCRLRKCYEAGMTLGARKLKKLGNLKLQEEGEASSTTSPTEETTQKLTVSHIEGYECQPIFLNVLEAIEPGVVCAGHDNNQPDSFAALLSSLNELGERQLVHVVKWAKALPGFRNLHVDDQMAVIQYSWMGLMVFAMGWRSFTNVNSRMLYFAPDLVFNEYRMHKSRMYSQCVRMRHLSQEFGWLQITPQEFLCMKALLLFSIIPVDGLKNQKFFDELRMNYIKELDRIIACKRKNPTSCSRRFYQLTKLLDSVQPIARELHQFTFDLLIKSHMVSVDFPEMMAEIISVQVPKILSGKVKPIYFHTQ

SMILES	Potency [1]	Potency [2]	Potency [3]	activity change, negative = inhibition [4]	Potency [5]	Potency [6]
O=C(O)CS	inactive and active: 12.3 µM	active: 61.6 µM	–	–	–	–
ClC1=C(Cl)C(Cl)(Cl)C(Cl)=C1Cl	active: 0.77 µM	inconclusive: 68.6 µM [cytotoxic, single point]	inconclusive: 69 µM [inhibitor, single point]	–	–	–
Nc1cc([N+](=O)[O-])ccc1O	inconclusive: 61.1 µM [cytotoxic] and inactive	active: 30.6 µM and active: 60.8 µM	–	inconclusive: -1.5% and inconclusive: 0.364%	–	–
CC(C)(C)c1ccc(C(O)CCCN2CCC(C(O)(c3ccccc3)c3ccccc3)CC2)cc1 (configuration not stated)	inconclusive: 33.5 µM [cytotoxic, single point]	–	–	–	inconclusive: 2.39 µM [cytotoxic, partial curve, poor fit]	inconclusive: 31.2 µM [cytotoxic, single point]
O=C(COc1ccc(Cl)cc1)N1CCN(Cc2ccc3c(c2)OCO3)CC1	inconclusive: 33.5 µM [cytotoxic, single point]	inconclusive: 48.6 µM [cytotoxic, partial curve]	inconclusive: 61.1 µM [inhibitor, partial curve]	–	inconclusive: 43.6 µM [cytotoxic, partial curve]	–
O=C(Nc1cccc(C(F)(F)F)c1)c1cc(Br)cc(Br)c1O	active: 6.68 µM and active: 4.86 µM	–	–	–	–	active: 11.9 µM and active: 10.9 µM
CCCCCCCCCCCCOC(=O)c1cc(O)c(O)c(O)c1	active: 342 nM and active: 217 nM	–	–	–	inconclusive: 30.8 µM [cytotoxic, partial curve] and active: 54.9 µM	inconclusive: 76.6 µM [cytotoxic, single point] and active: 54.5 µM
CC(C)(C)CC(C)(C)c1ccc(OCCOCC[N+](C)(C)Cc2ccccc2)cc1	active: 1.06 µM and active: 1.93 µM	active: 16.8 µM and active: 13.7 µM	–	–	active: 21.3 µM and active: 7.75 µM	active: 24.8 µM and active: 38.5 µM
O=C(c1cc(O)c(O)c(O)c1)c1ccc(O)c(O)c1O	active: 30.5 µM and active: 13.7 µM	inconclusive: 24.3 µM [cytotoxic, full curve, poor fit] and inconclusive: 68.6 µM [cytotoxic]	–	–	–	inconclusive: 61.1 µM [cytotoxic, partial curve, poor fit]
